# Measured values reported in PubChem BioAssay AID504332 (National Center for Advancing Translational Sciences (NCATS), 2011).
# Where “and” joins values, the source holds several entries; their conditions need not be identical. Identical values can stand only once. Hit rate of the full screen: of about 350,000 compounds, about 31,000 (8.9%) were called active. Inconclusive means that the source gave no clear call. Such entries were picked first, then a sample of the others. Calls follow the shape of the dose curve; as a rule, active = well fitted inhibition curve with a large enough effect; inconclusive = small, poorly fitted or top-dose-only effect; inactive = no such curve, though single readings can be large or run the other way. Potencies of inconclusive entries are doubtful fits and often do not repeat. Where a structure was tested more than once in an assay, its records may differ in their call. Where a SMILES comes first, the peptide text is derived from it. The star is where a group is joined. Cbz = O=C(OCc1ccccc1)*
# Target: Histone-lysine N-methyltransferase EHMT2 (Homo sapiens) (UniProt Q96KQ7)
# Experiment: qHTS Assay for Inhibitors of Histone Lysine Methyltransferase G9a; also: nearly all actives have a fitted effect of over 75% in size
# Settings: G9a H3K9 monomethylation, AlphaScreen, 2 h; activity, negative = inhibition: at 59 µM (top of the series) unless noted
# Method in brief: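 Chemiluminescent proximity detection of H3K9 monomethylation, read after 10 min bead incubation in the dark. Reaction: 20 nM G9a, 500 nM biotin-H3K9 peptide, 20 uM SAM cofactor, 2 h, room temperature, following 15 min enzyme-compound preincubation.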
# % is scaled to controls: 0 for no effect and ±100 for the full control effect; potency is read from the fitted curve at half-maximal effect; tags tell the direction and shape of the fitted curve.
# Sequence of UniProt Q96KQ7 (Q96KQ7 whole entry, looked up): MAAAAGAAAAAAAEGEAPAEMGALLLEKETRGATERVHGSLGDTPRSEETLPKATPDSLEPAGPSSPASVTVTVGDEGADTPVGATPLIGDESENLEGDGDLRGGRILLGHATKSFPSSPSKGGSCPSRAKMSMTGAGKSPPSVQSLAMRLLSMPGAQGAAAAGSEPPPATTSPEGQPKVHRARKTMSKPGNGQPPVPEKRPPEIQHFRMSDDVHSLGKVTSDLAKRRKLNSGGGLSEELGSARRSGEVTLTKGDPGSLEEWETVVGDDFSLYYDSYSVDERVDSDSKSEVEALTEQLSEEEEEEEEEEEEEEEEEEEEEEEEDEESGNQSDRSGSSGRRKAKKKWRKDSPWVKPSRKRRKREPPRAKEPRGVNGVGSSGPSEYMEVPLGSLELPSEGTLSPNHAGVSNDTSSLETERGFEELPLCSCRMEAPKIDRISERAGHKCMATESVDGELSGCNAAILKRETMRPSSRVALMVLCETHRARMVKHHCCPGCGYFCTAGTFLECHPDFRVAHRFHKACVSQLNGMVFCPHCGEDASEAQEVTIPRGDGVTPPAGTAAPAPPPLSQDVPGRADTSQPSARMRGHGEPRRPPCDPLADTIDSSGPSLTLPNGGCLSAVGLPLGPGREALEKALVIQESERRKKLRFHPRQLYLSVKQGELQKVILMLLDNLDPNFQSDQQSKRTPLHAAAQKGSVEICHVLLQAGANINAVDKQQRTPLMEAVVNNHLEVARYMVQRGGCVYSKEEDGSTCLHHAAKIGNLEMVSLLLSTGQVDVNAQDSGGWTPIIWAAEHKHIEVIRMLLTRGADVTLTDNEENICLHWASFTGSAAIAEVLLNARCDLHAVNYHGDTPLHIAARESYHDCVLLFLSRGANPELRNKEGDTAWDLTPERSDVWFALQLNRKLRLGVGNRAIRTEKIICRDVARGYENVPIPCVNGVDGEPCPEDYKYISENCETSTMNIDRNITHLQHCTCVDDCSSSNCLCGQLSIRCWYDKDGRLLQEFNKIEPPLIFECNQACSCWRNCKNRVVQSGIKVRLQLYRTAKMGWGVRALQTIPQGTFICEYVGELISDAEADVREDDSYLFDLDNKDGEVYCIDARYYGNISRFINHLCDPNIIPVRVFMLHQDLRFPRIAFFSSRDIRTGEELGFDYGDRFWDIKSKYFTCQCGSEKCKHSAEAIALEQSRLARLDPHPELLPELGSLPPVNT
Structure (SMILES),Potency,"activity, negative = inhibition"
CCCCN1C(=O)Cc2c1nc(N)c1c(N)nc(N(CCC)CCC)c(C#N)c21,active: 39.8 µM,–
COc1ccc2nc(SCC(=O)Nc3ccc4c(c3)CCC4)[nH]c2c1,"inconclusive: 39.8 µM [inhibitor, single point]",–
CCOC(=O)c1c(NC(=O)COc2ccccc2F)sc2c1CCCC2,–,inactive: 8.82%
CCOC(=O)NC(=O)CSc1cc(C)c2cc(C)cc(C)c2n1,"inconclusive: 39.8 µM [inhibitor, partial curve, poor fit]",–
Cc1cccc(CN2C(=O)c3ccccc3Sc3ccc(C(=O)N4CCCC4)cc32)c1,–,inactive: -3.32%
N#Cc1nc(-c2ccco2)oc1N1CCN(Cc2ccccc2)CC1,–,inconclusive: -54% [inhibitor]
O=C(CSc1nc2[nH]ncc2c(=O)n1-c1ccccc1Br)NCc1ccccc1Cl,"inconclusive: 89.1 µM [inhibitor, partial curve, poor fit]",–
O=C(Nc1cc(Cl)cc(Cl)c1)c1ccc(F)c(S(=O)(=O)NC2CCCC2)c1,–,inactive: 0.0914%
Oc1ccccc1CN1CCCN(Cc2ccccc2O)C1,–,inactive: -0.385%
CN(C(=O)CCOc1ccccc1)c1c(N)n(Cc2ccccc2)c(=O)[nH]c1=O,"inconclusive: 79.4 µM [inhibitor, partial curve, poor fit]",–
COCCNC(=O)NC1(C(F)(F)F)Oc2ccc(Cl)cc2O1 (configuration not stated),active: 39.8 µM,–
COc1ccc(/C=C2\Oc3cc(OCC(=O)N4CCC[C@H]4C(=O)O)ccc3C2=O)c(OC)c1OC,"inconclusive: 79.4 µM [inhibitor, partial curve, poor fit]",–
COc1ccc(CCNC(=O)c2c[nH]c3ccc(F)cc3c2=O)cc1OC,"inconclusive: 89.1 µM [inhibitor, partial curve, poor fit]",–
Fc1ccc(CN2CCN(C(c3ccccc3)c3ccccc3)CC2)cc1,active: 31.6 µM,–
O=C(COc1ccc(S(=O)(=O)Nc2ccccc2)cc1)NCc1ccccn1,"inconclusive: 44.7 µM [inhibitor, partial curve, poor fit]",–
CCCCNC(=O)c1onc(CSc2ccccc2)c1C(=O)NCCCC,–,inconclusive: -52.3% [inhibitor] [at 2.33 µM]
CSc1nsc(SC)c1C(N)=O,–,inactive: 8.3% [at 102 µM]
Cn1c(CC(=O)Nc2ccccc2)cc2ccccc21,–,inactive: 43.4% [at 102 µM]
O=C[C@@H]1CCCN1C(=O)[C@@H]1CCCN1C(=O)OCc1ccccc1 (Cbz-Pro-Pro-aldehyde),active: 8.91 µM,–
COC(=O)c1ccc(C(=O)OC)c(NC(=O)/C=C/C(=O)O)c1,"inconclusive: 31.6 µM [inhibitor, full curve, poor fit]",–
Cc1nnc(SCc2ccc(C(=O)c3ccc(Cl)cc3)o2)n1-c1ccccc1,"inconclusive: 25.1 µM [inhibitor, single point]",–
Cc1ccc(OC(=O)c2cccc([N+](=O)[O-])c2)c(-n2nc3ccccc3n2)c1,–,inactive: 21.1%
C=CCn1c(SCCOC)nc2c1c(=O)[nH]c(=O)n2C,active: 39.8 µM,–
CCOc1ccccc1NC(=O)CCCn1cc([N+](=O)[O-])cn1,"inconclusive: 79.4 µM [inhibitor, single point]",–

Structure (SMILES),Potency,"activity, negative = inhibition"
COc1ccccc1/C=C/C(=O)NCC(=O)N/N=C/c1ccc(C)o1,active: 44.7 µM,–
COc1ccc(NC(=O)Cc2ccc(Cl)cc2)cc1S(=O)(=O)N1CCCCC1,"inconclusive: 20 µM [inhibitor, single point]",–
O=C(NCc1ccco1)c1nn2c(C(F)(F)F)cc(-c3cccs3)nc2c1Cl,"inconclusive: 89.1 µM [inhibitor, partial curve, poor fit]",–
Cc1ccc(C)c(NC(=O)c2ccccc2O)c1,–,inactive: 16.8%
CCN(C(=O)COC(=O)CNC(=O)c1cccc(C)c1)c1c(N)n(Cc2ccccc2)c(=O)[nH]c1=O,"inconclusive: 89.1 µM [inhibitor, single point]",–
COCC(=O)Nc1cc([N+](=O)[O-])ccc1C,–,inactive: 34.4% [at 0.501 µM]
COc1ccc(OC)c(-c2cc(C(=O)Nc3cccc(Cl)c3C)no2)c1,–,inactive: 10.3%
Cc1nc2cc(N3CCCCC3)c(NC(=O)c3ccncc3)cc2c(=O)n1Cc1ccccc1,–,inactive: 7.85%
O=C(Cc1cccs1)Nc1cccc(-c2nc3cc4ccccc4cc3[nH]2)c1,–,inactive: 35.4%
CCOC(=O)C1=C(N)n2c(s/c(=C\c3cccs3)c2=O)=C(C(=O)OCC)C1c1cccs1 (configuration not stated),"inconclusive: 3.98 µM [inhibitor, full curve, poor fit]",–
CCCOc1ccc(C2/C(=C(\O)c3c(C)[nH]c(C(=O)OC)c3C)C(=O)C(=O)N2CCN(C)C)cc1 (configuration not stated),"inconclusive: 79.4 µM [inhibitor, single point]",–
O=C(O)c1cccc(N2C(=O)C3C4C=CC(C4=C(c4ccccc4)c4ccccc4)C3C2=O)c1 (configuration not stated),active: 28.2 µM,–
COc1cccc(CNC(=O)c2ccc(Cn3c(SCc4ccccc4)nc4cccnc43)cc2)c1,–,inactive: -24.9%
Cc1cnc(C(=O)OCC(=O)Nc2ccc(Cl)cn2)cn1,"inconclusive: 89.1 µM [inhibitor, single point]",–
COc1ccccc1C(=O)NC(CCSC)C(=O)NCCCSc1ccccc1 (configuration not stated),active: 56.2 µM,–
CCOC(=O)c1cc2occc2n1CC(=O)N1CCCc2ccccc21,"inconclusive: 8.91 µM [inhibitor, single point]",–
CC1CCN(CC[C@H]2CCCN2S(=O)(=O)c2cccc(O)c2)CC1,inactive and active: 25.1 µM,–
Cn1nccc1C(=O)NCc1ccc2c(c1)CCN2C(=O)c1ccc(F)cc1,–,inactive: 3.69%
OCCC1CN(Cc2ccc(Oc3ncccn3)cc2)CCN1C1CCCCC1 (configuration not stated),–,inactive: -1.79%
COc1ccccc1NC(C)=O,–,inactive: 6.96%
O=c1cc(CN2CCN(c3ccccn3)CC2)nc2sccn12,–,inactive: -41.4% [at 102 µM]
O=[N+]([O-])c1ccccc1S(=O)(=O)Nc1ccc(-c2ccc(N3CCOCC3)nn2)cc1,"inconclusive: 50.1 µM [inhibitor, partial curve, poor fit]",–
N#C/C(=C1\CCCN1)c1nc(-c2ccccc2)cs1,–,inconclusive: -56% [inhibitor]
